Source: the supplement of paper PMC3334620
Whole data set: some 33,000 sequences, median “E-score (-0.5 to 0.5)” near -0.021, cut for the highest 2% near 0.32. The list shows a part of the results.

The sequences below were run against T1, Zap1 (UniProt P47043) (assay: PBM E-score (8-mer binding enrichment) (E-score (-0.5 to 0.5)); higher = stronger / more preferred TF binding; most listed sequences are background and not binding sites). Conditions: protein concentration: 200 nM; construct: GST-full length.
T1 sequence: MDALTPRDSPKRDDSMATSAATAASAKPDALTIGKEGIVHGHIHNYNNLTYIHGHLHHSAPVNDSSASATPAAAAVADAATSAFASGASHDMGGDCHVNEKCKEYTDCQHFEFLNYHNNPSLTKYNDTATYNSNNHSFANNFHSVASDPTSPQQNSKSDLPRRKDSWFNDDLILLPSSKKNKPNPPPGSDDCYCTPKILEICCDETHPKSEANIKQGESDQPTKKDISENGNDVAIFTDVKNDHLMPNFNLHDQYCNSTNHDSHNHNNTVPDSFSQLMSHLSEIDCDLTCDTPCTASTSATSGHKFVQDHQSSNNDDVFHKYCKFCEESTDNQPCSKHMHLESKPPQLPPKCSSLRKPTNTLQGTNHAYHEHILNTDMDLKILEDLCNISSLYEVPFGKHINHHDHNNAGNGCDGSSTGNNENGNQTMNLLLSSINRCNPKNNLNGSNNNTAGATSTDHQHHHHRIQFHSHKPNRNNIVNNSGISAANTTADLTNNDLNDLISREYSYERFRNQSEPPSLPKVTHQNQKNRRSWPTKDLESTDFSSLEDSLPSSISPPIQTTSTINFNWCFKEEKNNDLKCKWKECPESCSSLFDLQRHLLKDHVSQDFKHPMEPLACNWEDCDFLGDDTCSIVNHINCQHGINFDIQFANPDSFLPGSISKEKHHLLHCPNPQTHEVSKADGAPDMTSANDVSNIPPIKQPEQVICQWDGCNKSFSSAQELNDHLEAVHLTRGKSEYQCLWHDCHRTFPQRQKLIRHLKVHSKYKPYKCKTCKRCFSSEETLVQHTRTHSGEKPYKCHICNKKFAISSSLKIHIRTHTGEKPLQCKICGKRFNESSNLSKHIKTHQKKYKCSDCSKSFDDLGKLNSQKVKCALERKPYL
Method in brief: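 Yeast transcription factors, full-length or as DNA-binding domains, were expressed with a GST tag using PURExpress in vitro transcription/translation. At about 100-200 nM they were applied to universal all-10-mer Agilent arrays, double-stranded by primer extension on fresh or once-stripped slides. Fluorescent anti-GST detected bound protein, and masliner normalised the scans. E-scores for ungapped eight-base words, pooled with reverse complements, came from the Universal PBM Analysis Suite.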

Sequence | PBM E-score
CCGAATTC | -0.067
ATCACGGG | 0.0371
AAGCTCTA | 0.154
CGACGGCA | -0.155
GGAAGTAA | -0.0575
CGCTGGAA | -0.107
CGGTTTTA | 0.172
ACCATGTC | -0.0322
CATTCCCC | -0.138
CCTAAGCA | -0.00646
GCGTGACA | -0.136
CTGCTATA | -0.0175
GCGCTGCC | -0.21
GAAATGCA | -0.00568
CAATCGAG | -0.255
TCTGCTCA | -0.0932
CAAAAGGG | 0.276
CGCCTTAC | -0.0277
GAAAAGAC | 0.0296
CTAAGACA | -0.0463
GACAAATC | -0.0199
AGGCCCTG | -0.101
GAAAAAAA | 0.184
CCGGTTTC | 0.0368
AGCAGTCC | -0.307

Sequence | PBM E-score
CGCGCTGA | -0.179
GACATTCA | -0.184
ATAGATAC | 0.0197
CCGTATGA | -0.0636
GTACACGA | -0.0167
TTACTGAA | 0.169
AGTGCGTG | -0.107
ATGAGACA | -0.031
GACCGAAC | 0.0709
GCATCGCC | -0.194
GGCAAAGA | 0.122
ACACGTCG | -0.352
AATGGTTC | 0.246
GAGTGGCC | -0.0229
CAAAGCTG | -0.0306
AACCGAGT | 0.0606
AACTGTTA | 0.265
CCTGCGTA | -0.0182
AGTAGTAC | 0.194
CAATAAGC | 0.061
ATATGAGC | -0.113
GGCATACC | -0.195
TCATGGCA | 0.00543
CGTCGAGC | -0.244
TAACCCAA | 0.424

Sequence | PBM E-score
CCCAATTC | 0.157
AGTAAGGA | -0.0988
ACGCGACC | 0.0626
CAATCGCG | 0.0132
GGCAGGGA | -0.171
CATTTGGC | 0.0268
GTGACTTA | -0.00842
ACGCCTGA | -0.0889
TATGCGCA | -0.264
AAGGTAAG | 0.0248
ATGACTTC | -0.0599
ACTTTCCT | -0.195
CGCAAGCC | -0.0515
GACGGCAA | -0.0817
TCGATTCA | 0.0394
CCTCATCA | 0.0805
GTTACAGA | 0.183
ATCTCTCG | -0.106
CCCACGCC | -0.0544
ATACGAAT | -0.00358
CACTCTAA | 0.0733
GGGAATTA | 0.112
GACGCCTC | -0.0974
ACCGTTAC | 0.129
GCAGTTAC | 0.109

Sequence | PBM E-score
CATTATAG | 0.0127
GTAAAGAA | 0.122
CGAATGAC | 0.0549
CGTAGCTC | -0.191
AAGAAGGC | -0.243
CATTTAAG | 0.0457
AAAGGCAA | 0.172
ATTCGCAA | -0.0696
CACTACTA | 0.053
CACCCATG | -0.0985
GGGGTCTA | 0.0957
GTATCCCA | -0.022
AAGTTTAT | 0.113
AGGTGCAC | -0.14
GCATAGCA | -0.0832
GACCTTGC | 0.133
ACAGAAAA | 0.132
CCGCAAGA | 0.0833
AGATCATA | 0.0757
AATATAGA | 0.0809
AAACTCCT | -0.301
AGCATCGG | -0.283
GGTTTCCA | -0.00766
CGTTAGCA | 0.0484
GACGAAAA | 0.279

Sequence | PBM E-score
ACTGCTAC | -0.0295
AGTTAGTA | -0.00813
AGGATCTG | -0.242
CTTAGCCC | -0.188
AGCCGGCT | -0.327
GTTGTTAA | 0.253
CTTAGCAC | -0.0368
GCTATAAA | -0.00454
AGGTACCT | 0.443
ACGTACCG | -0.111
CGTTCGTA | 0.00932
GAATGATC | 0.0795
CCTGAATC | 0.00265
TATGGAGA | 0.0344
ACCATACA | 0.0885
GCTAAGAA | -0.123
CGTAAGAG | -0.151
CAATATGG | 0.1
AACCTACG | 0.123
GTTTTGGA | 0.21
CTCGACAA | -0.0199
ACCCGTGG | 0.108
ATCGATAA | -0.0514
CAGAGCCA | -0.0889
ATAGATGA | -0.0652

Sequence | PBM E-score
ATCCTTAC | -0.0987
AGGCTTTA | -0.179
CGGGCAAA | 0.0441
ACACGGAA | 0.132
GGTTAGTA | 0.325
AAAAGTAC | 0.262
ATGTTACA | 0.028
CCAGATTA | 0.18
ACCCCTTG | 0.279
ACTAGTTC | 0.0802
ATATACAG | 0.146
TAAGTTCA | 0.0427
CACTGTTC | -0.108
CTAGCAGC | -0.156
CAGCTTGC | -0.144
GCGAACGC | -0.253
GCAGTCTA | -0.262
GCATCGTA | 0.00397
AGTTCGGG | 0.122
ATCTGCAG | -0.071
CGCAGTAA | 0.0339
GCAGCTAA | -0.0888
GAAATTAC | 0.18
CGCGACCG | 0.228
GAGAGCGC | -0.341

Sequence | PBM E-score
ACGCCTAT | -0.255
TCGACTCA | -0.0722
CAAGCCGG | -0.0311
AAGCTTTC | 0.0356
TCAGCAAA | 0.141
ATTTCCTA | 0.082
AAGTTTCT | 0.125
ATCCGTCA | -0.0725
ACGGGCGG | -0.16
CTGACTGC | -0.122
GTGGAGGA | -0.0329
GACACGCC | -0.14
CTCAGTCA | -0.12
AGCTGGTA | -0.149
GGAAATTA | 0.153
ATTAGAGC | -0.0383
ACATCGAT | 0.137
TACTCAGA | 0.037
ACTAAGGA | -0.182
TCGCCCGA | -0.206
CGGATAGC | -0.0817
CCGTCAAA | -0.0822
